The values that follow come from the supplement of paper PMC11417369.

The other results are listed elsewhere or left out.

The subject of this assay is PF3D7_0420300 AP2 domain 1 (GST-tagged). The assay can be described thus: gcPBM binding intensity (ln(normalized median fluorescence intensity)); higher = stronger DNA binding. In a few lines:
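Alexa488 anti-GST antibody, scanned at 488 nm, detected GST-tagged P. falciparum DNA-binding domains that had been expressed in E. coli and incubated for 1 h on an Agilent 4 × 180k array. The array carried primer-extended double-stranded 36-bp intergenic genomic probes and negative controls. Binding intensity is the highest Masliner-normalised natural-log median intensity across replicate spots of either orientation of each probe.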
With “TACACCATGATACATACACACAGACATATACACATT [CACACA_site6601]”, the “gcPBM binding intensity (ln)” value was 9.8.

In the case of “AAAAAACATTTGATCTGTACGCATAGACAATTATAT [XGTACX_site960]”, the “gcPBM binding intensity (ln)” value came to 9.13. With “TAAAAGAAAGCACATACACACACAAAAAAAAAAAAG [CACACA_site8159]”, the “gcPBM binding intensity (ln)” value amounted to 10.2.

“AATAATATGTTATCTCTTACACATATAAAAAATAAA [XGTACX_negctrl_site370]”: the “gcPBM binding intensity (ln)” value is 9.05.

For “TGTTATATCAATAATATATAATAATACCCTTCTTTT [CACACA_negctrl_site1682]”, the “gcPBM binding intensity (ln)” value was determined as 9.06. Regarding “TTATAACATATAAACATGTTTCATCTTACGTATTTT [GTGCAC_negctrl_site694]”, the “gcPBM binding intensity (ln)” value is 9.45. Then “ATATTTAATTTGTATGGTACAGTACGATCTTTCTTT [XGTACX_site5533]”, with 9.3; and ATAAGAATATATAGAGTGCGTTGAAGAATTATAATA, with 9.43.

“CCCTCAACGAATTTGAGTACACATTTTAAATGATAT [XGTACX_site7763]”: the “gcPBM binding intensity (ln)” value stood at 9.14. Then “ATCGCAAGATTAATATAAGGAGAAACGTTTATATAT [GTGCAC_negctrl_site267]”, with 9.13; and “AAAAAAAAAAGAAACACACACATATAGATTTATAAC [CACACA_site6927]”, with 10; and “AATCTAGGTATTTATACACACTAAAATAATATACGA [CACACA_site4515]”, with 9.42. Turning to “AAAAAATTAACCGTAACACACACACCGATATATATA [CACACA_site9312]”, the “gcPBM binding intensity (ln)” value was 10.1. In the case of “ATTTAAATAATATTCACACACAAAATTAAATTTTAA [CACACA_site6246]”, the “gcPBM binding intensity (ln)” value came out at 9.44. The value for “GCTCTAATTAATATTTGTACACACATATTTAACCTA [XGTACX_site6808]” was 9.73; that for “TTTTTTTTTTTTTTTTGTACATAATTCCATATTTTT [XGTACX_site1789]” was 8.74; that for “TGATCTTTACACATATTATATATATATAAAAAAAAA [XGTACX_negctrl_site360]” was 8.83. For the sequence “TTTAATAAATAAATAAATAAAATATATTAAAAACCA [CACACA_negctrl_site80]”, the “gcPBM binding intensity (ln)” value worked out at 9.16. Then “ATATTTTATTATTGTTGTACTTTTTTTTTTTGATTG [XGTACX_site4091]”, with 9.24; and “ATAATATGAAAACACACACACACACTAATAAAAAAA [CACACA_site8617]”, with 10.2; and “GGCAACAATGTAGATTGTACATATGAATTTTACAAT [XGTACX_site5655]”, with 9.15. Then ATATATATTATCATTGTGCACTTATTTATATACCTT, with 9.53.

For the sequence “ATATTTTGTTTTATAGTGCACATGGGCATATATTAA [GTGCAC_site9435]”, the “gcPBM binding intensity (ln)” value worked out at 9.19.

“TTTACTTTTTTTTCTTGTACTCATACATACTATCAT [XGTACX_site4919]”: the “gcPBM binding intensity (ln)” value was 9.38. The value for “AAATTTCAATAATCTACACACATAAAAAAACAAAAG [CACACA_site1702]” was 9.86. Then “TGAATAATATACATACGTACATACATATATATAATA [XGTACX_site1302]”, with 9.13; and “ATAAAAAGGAAACACACACACACACCCATATATATA [CACACA_site904]”, with 10.2; and “TTATCACATAAACGATGTACGTACTAGGTTTTTTTT [XGTACX_site2147]”, with 9.37.

Consider “TTTTTTTTTTTTTTTTTTTTCATTCAATTATATTTA [CACACA_negctrl_site712]”, for which the “gcPBM binding intensity (ln)” value was 8.33. Then “AACTAATATAATAATACATGCACATAAAAATATATA [TGCATGCA_site606]”, with 9.52; and “AAAGGAATATAATGATGTACACAAATATATATACAT [XGTACX_site5347]”, with 9.53. As for “CACGCATACGGACACACACACACACCGATATATATA [CACACA_site4521]”, the “gcPBM binding intensity (ln)” value amounted to 10.3. For the sequence “TATTTTTTTATTTGTGCATGTCATATTTAAACATAA [TGCATGCA_site1006]”, the “gcPBM binding intensity (ln)” value was 9.21. The value for “ATATAAAAATTAAAATGTACATATCTTATTATAATA [XGTACX_site983]” was 9.13; that for “GTTTAAAAAAATTATCAACTTTAAAAAGGTAACATT [XGTACX_negctrl_site203]” was 8.99; that for “CAACATAAAAATTAAGCATGCAATAGACTTGTGTTG [TGCATGCA_site417]” was 9.54.

For the sequence “TAATAAAATAATATCACACATATTTATATATATTAT [CACACA_site5814]”, the “gcPBM binding intensity (ln)” value was 9.23. Then “GTAGTAAATAGGAGGATGCATATGGCACACATTATA [TGCATGCA_negctrl_site59]”, with 9.41; and “CCATAAAAAGGATACACACACACACCGACATATATA [CACACA_site4653]”, with 10.2. For the sequence “GTATTATATTTCAACTGTACGTAAAACTATTAAAAT [XGTACX_site3679]”, the “gcPBM binding intensity (ln)” value turned out to be 9.22.

For the sequence “CAAAAAAATGTGAAGGCATGCAAATATGTAAAATAA [TGCATGCA_site921]”, the “gcPBM binding intensity (ln)” value came to 9.76. As to “ATAAAGCCATACAATACACACATTTTACATGGGGGT [CACACA_site9072]”, the “gcPBM binding intensity (ln)” value is 9.72. Consider “TTCATTTAGCAAGAATGTACTTATATATATATATAT [XGTACX_site3401]”, for which the “gcPBM binding intensity (ln)” value amounted to 9.12. Then “ATTTGTAATTTATATTCACACATTCAAAAAAATGAG [CACACA_site6057]”, with 9; and “TATAAATTTGTTGTTGCATGCAGTATACCAAAAAAA [TGCATGCA_site445]”, with 9.17; and “AAAAATATAATATAATGTACACAAAAAAAAAAAAAT [XGTACX_site4914]”, with 9.6. Then “TAAAATGTAATCTGAACACACATATTTTTTTAATAT [CACACA_site1768]”, with 9.29.

On to “AATAGCCCATATGGAATACACACTGAAAATAAAAAA [CACACA_site3373]”, for which the “gcPBM binding intensity (ln)” value came out at 9.54. On to “AATTATTTATCGGAATGTACATAAAAACATATGTAT [XGTACX_site7443]”, for which the “gcPBM binding intensity (ln)” value came out at 9.2. For “AATAATATCATTTAGACACACACTCTTACAATATGT [CACACA_site8832]”, the “gcPBM binding intensity (ln)” value turned out to be 9.55. Then “TATTTAATAAAGAAATAAAAATAAAGAAAAAAAAAA [CACACA_negctrl_site74]”, with 9.16. Then “ACCTACATAACATACACACGCATATATATAATTTTA [CACACA_site2847]”, with 9.64.

For the sequence “CTTTCTTATTTGAACGCATGCATTTGTACCTTTTAT [TGCATGCA_site671]”, the “gcPBM binding intensity (ln)” value worked out at 9.36. For the sequence “CATGCAAAAAATTCCACACACACACCCACATATAAA [CACACA_site1229]”, the “gcPBM binding intensity (ln)” value turned out to be 9.92. For the sequence “TATATACAAAATGCCTGTACATATATATTTATTTAT [XGTACX_site761]”, the “gcPBM binding intensity (ln)” value stood at 9.36. As for ATATATATATATATAGTGCAAATATCTTCTTTATAA, the “gcPBM binding intensity (ln)” value amounted to 9.17. “TAATAAACCAAACTAAACAATATATCAAAAAGCACA [CACACA_negctrl_site269]”: the “gcPBM binding intensity (ln)” value came to 9.75. As for “TATTATATCGAACACTGTACTTTTTTATTCAACCTA [XGTACX_site493]”, the “gcPBM binding intensity (ln)” value amounted to 9.32. Consider “GCCTTTTTATTTAGAACACACACAAAAAAAAAAAAA [CACACA_site8520]”, for which the “gcPBM binding intensity (ln)” value came out at 9.3. With “GTATATAAGTATATATGTACATATATTTTATATATA [XGTACX_site4745]”, the “gcPBM binding intensity (ln)” value was determined as 9.12. Then ATATAAGAATAAATAGTGCAAAATAAATGATTATTT, with 9.46; and “AATACGAAGGATAAGAGTACTAATTAAATAAATGAA [XGTACX_site523]”, with 9.5; and TTTTTTTTTTTTTTGGTGCGATCTTTTAAATGATCC, with 8.69. As to “TTTTATAATTTAAAATAATGAAACTTCTTTCTATTT [TGCATGCA_negctrl_site324]”, the “gcPBM binding intensity (ln)” value worked out at 8.97. Then “TTTCTGATATTTTTATATTTTCTTATATATATATAT [GTGCAC_negctrl_site652]”, with 9.36; and “TTTAAATTTTAATATGCACACAAAATGTTATATTAA [CACACA_site8015]”, with 9.15. Take “TACAAATACATTACATGTACATATTTAATAATATCA [XGTACX_site2075]”: the “gcPBM binding intensity (ln)” value came out at 9.19. Then “TTTTCAATTAATAATACACACATGTATATATTATTA [CACACA_site3311]”, with 9.21. Then “AAGAAAAATATATATATAAATAAATAAATATATATA [TGCATGCA_negctrl_site330]”, with 9.11; and TTTGAAAAGTATGAGGTGCAAAAAATGTAATGAAAT, with 9.38. Turning to “CATTTTAAAACAGACACACACCAAAAAAAAAAAAAA [CACACA_site6259]”, the “gcPBM binding intensity (ln)” value worked out at 9.4. As for “TTTTTCTGTCGTTGTTGTACTTGAGGAGTAACAATT [XGTACX_site7852]”, the “gcPBM binding intensity (ln)” value was found to be 9.25. In the case of “TATATTATTATGCATAGTACGTACTGTGATAAGAAT [XGTACX_site2956]”, the “gcPBM binding intensity (ln)” value turned out to be 9.28. The value for “TTTTTTTTTTTTTTTTGTACATAATTATATATTTAC [XGTACX_site7540]” was 8.91.

As to “TAGTATTATTATTATGCACACAAAAATATTTATACA [CACACA_site9219]”, the “gcPBM binding intensity (ln)” value came out at 9.36. Take “AGCATTTCTTTTACATGTACATAATATTTTTAATAA [XGTACX_site1968]”: the “gcPBM binding intensity (ln)” value turned out to be 9.37.

As for “AAAAAAAAAAAAAAAAAAATAAAAAATAAATAAATA [CACACA_negctrl_site1498]”, the “gcPBM binding intensity (ln)” value stood at 8.88. Then “TATATATGTATGTATGCATGCCCTTTTTTAAAAAAA [TGCATGCA_site434]”, with 9; and “AAGAAAAAACAAACATGTACACATAATTTAGTTTTT [XGTACX_site3121]”, with 9.25. As to “AATGTATTAAAATTACGTACATATGCACATTTTATA [XGTACX_site5046]”, the “gcPBM binding intensity (ln)” value turned out to be 9.3.

With “TTTTTTATTTTGTGCACACACATAAAAATATAAATA [CACACA_site6497]”, the “gcPBM binding intensity (ln)” value turned out to be 9.24. Then “TACTCTTTCCAGAAGTGTACATAGAAATAATTACAT [XGTACX_site2668]”, with 9.

In the case of “TAAAAATAATATATTTGTACATATGTGTATACATAA [XGTACX_site741]”, the “gcPBM binding intensity (ln)” value is 8.99.

Turning to “TATAAATACATACATACACACATATATATATATATT [CACACA_site6116]”, the “gcPBM binding intensity (ln)” value came out at 9.54. Turning to “TCCTAAAAAAAAAAAAAAAATGAAAAAGGAAAAAAA [CACACA_negctrl_site1646]”, the “gcPBM binding intensity (ln)” value amounted to 9.03. Then “CAAGCACAGAAACACACACACACACCGACACAGACA [CACACA_site4359]”, with 10.2; and “AAAAAAAAAAAAAAAAGTACTAAATGTAAAAGAATA [XGTACX_site2164]”, with 9.32. With “AAAAGTTGTTTATAATGTACAAGGTAGAAAAAAACA [XGTACX_site1454]”, the “gcPBM binding intensity (ln)” value turned out to be 9.35. Then “TAAATGGATTGTTCAGGTACACATAAATATGATATT [XGTACX_site6963]”, with 9.24.
